# From the supplement of paper PMC8728848
# The other results are listed elsewhere or left out.
# What was measured:
# Assay in all cases: glycan array binding signal (z-score within array); higher = stronger binding
# Conditions in all cases: glycan notation: IUPAC condensed, linker removed
# [1] = target: Neu5Ac(a2-3)Gal(b1-4)GlcNAc(b1-2)[Neu5Ac(a2-3)Gal(b1-4)GlcNAc(b1-4)]Man(a1-3)[GlcNAc(b1-4)][Neu5Ac(a2-3)Gal(b1-4)GlcNAc(b1-4)Man(a1-6)]Man(b1-4)GlcNAc(b1-4)GlcNAc
# Outline: (§1)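 The binding signal is a Z-score computed within each array. Data were drawn from 3228 arrays in the Consortium for Functional Glycomics database, restricted to those with a known protein sequence. Scores were averaged over arrays of the same protein sequence at different concentrations or buffers, and over linkers, and negative values can be taken as non-binding.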
# [2] = target: Neu5Ac(a2-3)Gal(b1-4)GlcNAc(b1-2)[Neu5Ac(a2-3)Gal(b1-4)GlcNAc(b1-6)]Man(a1-6)[Neu5Ac(a2-3)Gal(b1-4)GlcNAc(b1-2)Man(a1-3)]Man(b1-4)GlcNAc(b1-4)GlcNAc
# Outline: as §1
# [3] = target: Neu5Ac(a2-3)Gal(b1-4)GlcNAc(b1-2)[Neu5Ac(a2-3)Gal(b1-4)GlcNAc(b1-6)]Man(a1-6)[Neu5Ac(a2-3)Gal(b1-4)GlcNAc(b1-2)Man(a1-3)][GlcNAc(b1-4)]Man(b1-4)GlcNAc(b1-4)GlcNAc
# Outline: as §1
# [4] = target: Neu5Ac(a2-3)Gal(b1-4)GlcNAc(b1-3)Gal
# Outline: as §1
# [5] = target: Neu5Ac(a2-3)Gal(b1-4)GlcNAc(b1-3)Gal(b1-3)GlcNAc
# Outline: as §1
# [6] = target: Neu5Ac(a2-3)Gal(b1-4)GlcNAc(b1-3)Gal(b1-4)GlcNAc
# Outline: as §1
# [7] = target: Neu5Ac(a2-3)Gal(b1-4)GlcNAc(b1-3)Gal(b1-4)GlcNAc(b1-2)Man(a1-3)[Neu5Ac(a2-3)Gal(b1-4)GlcNAc(b1-3)Gal(b1-4)GlcNAc(b1-2)Man(a1-6)]Man(b1-4)GlcNAc(b1-4)GlcNAc
# Outline: as §1
# [8] = target: Neu5Ac(a2-3)Gal(b1-4)GlcNAc(b1-3)Gal(b1-4)GlcNAc(b1-3)Gal(b1-4)GlcNAc
# Outline: as §1
# [9] = target: Neu5Ac(a2-3)Gal(b1-4)GlcNAc(b1-3)Gal(b1-4)GlcNAc(b1-3)Gal(b1-4)GlcNAc(b1-2)Man(a1-3)[Neu5Ac(a2-3)Gal(b1-4)GlcNAc(b1-3)Gal(b1-4)GlcNAc(b1-3)Gal(b1-4)GlcNAc(b1-2)Man(a1-6)]GalNAc
# Outline: as §1
# [10] = target: Neu5Ac(a2-3)Gal(b1-4)GlcNAc(b1-3)Gal(b1-4)GlcNAc(b1-3)GalNAc
# Outline: as §1
# [11] = target: Neu5Ac(a2-3)Gal(b1-4)GlcNAc(b1-3)Gal(b1-4)GlcNAc(b1-3)[Neu5Ac(a2-3)Gal(b1-4)GlcNAc(b1-3)Gal(b1-4)GlcNAc(b1-6)]GalNAc
# Outline: as §1
# [12] = target: Neu5Ac(a2-3)Gal(b1-4)GlcNAc(b1-3)Gal(b1-4)GlcNAc(b1-6)[Gal(b1-3)]GalNAc
# Outline: as §1
# [13] = target: Neu5Ac(a2-3)Gal(b1-4)GlcNAc(b1-3)Gal(b1-4)[Fuc(a1-3)]GlcNAc
# Outline: as §1
# [14] = target: Neu5Ac(a2-3)Gal(b1-4)GlcNAc(b1-3)GalNAc
# Outline: as §1
# [15] = target: Neu5Ac(a2-3)Gal(b1-4)GlcNAc(b1-3)[Neu5Ac(a2-3)Gal(b1-4)GlcNAc(b1-6)]GalNAc
# Outline: as §1
# [16] = target: Neu5Ac(a2-3)Gal(b1-4)GlcNAc(b1-6)GalNAc
# Outline: as §1
# [17] = target: Neu5Ac(a2-3)Gal(b1-4)GlcNAc(b1-6)[Gal(b1-3)]GalNAc
# Outline: as §1
# [18] = target: Neu5Ac(a2-3)Gal(b1-4)GlcNAc(b1-6)[Neu5Ac(a2-3)Gal(b1-3)]GalNAc
# Outline: as §1
# [19] = target: Neu5Ac(a2-3)Gal(b1-4)GlcNAc6S
# Outline: as §1
# [20] = target: Neu5Ac(a2-3)Gal(b1-4)[Fuc(a1-3)]GlcNAc
# Outline: as §1
# [21] = target: Neu5Ac(a2-3)Gal(b1-4)[Fuc(a1-3)]GlcNAc(b1-2)Man
# Outline: as §1
# [22] = target: Neu5Ac(a2-3)Gal(b1-4)[Fuc(a1-3)]GlcNAc(b1-3)Gal
# Outline: as §1
binder,measurement,setting,value
Arath Fbox LD (Arabidopsis thaliana) (protein) EFSVWLEKASGKRCLMLSAMNLSIIWGDNPQYWQWIPIPESRFEKVAKLRDVCWFEIRGRTNTRVLSPRTRYSAYIVFKGVDKCYGFQNVAIEAAVGVVGQEPSRRLICFSEAIRRGRRNVVKPKQREDGWMEIELGEFFNDGGIMDNDEIEMSALETKQLNRKCGLIIQGIEIRPAKILAAASFLEQKLISEEDLNSAVDHHHHHH,glycan array binding signal (z-score),[1],-0.391
same,glycan array binding signal (z-score),[2],-0.147
same,glycan array binding signal (z-score),[3],-0.407
same,glycan array binding signal (z-score),[4],0.044
same,glycan array binding signal (z-score),[5],-0.462
same,glycan array binding signal (z-score),[6],-0.587
same,glycan array binding signal (z-score),[7],-0.462
same,glycan array binding signal (z-score),[8],-0.482
same,glycan array binding signal (z-score),[9],-0.519
same,glycan array binding signal (z-score),[10],-0.37
same,glycan array binding signal (z-score),[11],-0.631
same,glycan array binding signal (z-score),[12],-0.439
same,glycan array binding signal (z-score),[13],-0.548
same,glycan array binding signal (z-score),[14],-0.605
same,glycan array binding signal (z-score),[15],-0.595
same,glycan array binding signal (z-score),[16],-0.388
same,glycan array binding signal (z-score),[17],-0.599
same,glycan array binding signal (z-score),[18],-0.499
same,glycan array binding signal (z-score),[19],2.19
same,glycan array binding signal (z-score),[20],-0.514
same,glycan array binding signal (z-score),[21],-0.353
same,glycan array binding signal (z-score),[22],-0.477
